Sequences and labels used below:
B1: chr5:40767470:40767586:-|CDS|ENSG00000132356|unk|FALSE|unique (ssRNA)
RNA: GGGAGUUCUACAGUCCGACGAUCUUUAAGAAGAUAUGUGAUGGGAUCUUCUAUACCCCUCAAUAUUUAAAUCCUUCUGUGAUUAGCCUUUUGAAACAUAUGCUGCAGGUGGAUCCCAUGAAGAGGGCCACAAUCAAAGAUAUCCAACAGAGGAUUGAGCAUCA
B2: ENSG00000120708:stop:overlap|stop_codon|ENSG00000120708|stop_codon|NA|stop_codon (ssRNA)
RNA: GGGAGUUCUACAGUCCGACGAUCCCCAGAGGUCUGUGCGACUAGCCCCUGUCUAUCAAAAGUUAUUAGAGAGGAUGAAGCAUUAGCUUGAAGCACUACAGGAGGAAUGCACCACGGCAGCUCUCCGCCAAUUUCUCUCAGAUUCAACAGAGGAUUGAGCAUCA
B3: ENSG00000092871:stop:overlap|stop_codon|ENSG00000092871|stop_codon|NA|stop_codon (ssRNA)
RNA: GGGAGUUCUACAGUCCGACGAUCCAGGCUUGGAACCAAGCUGCAAGUCCUGUGGGGCUCACUUUGCAAACACGGCCAGGAAGUAGUGCUCAAGAUCACAUAGUUAUUAAAUGACAGAGCCGGGAUUCAAACCCAGGUCCUUGACAACAGAGGAUUGAGCAUCA
B4: chr19:37127587:37127689:+|CDS|ENSG00000197050|unk|FALSE|unique (ssRNA)
RNA: GGGAGUUCUACAGUCCGACGAUCUAUGCAUGUAAGGAAUGUGGGAAGGCCUUUACUCAAAGCUCACAACUUAUUUUACAUCAUAGAAUUCAUACUGGUGAAAAACCAUAUAAAUGUGAAGAAUGUGGGAAAGCCUUUAUUCGUCAACAGAGGAUUGAGCAUCA
B5: chr3:57561443:57561544:+|3pUTR|ENSG00000174840|unk|total|mutant (ssRNA)
RNA: GGGAGUUCUACAGUCCGACGAUCGAAAUUUAAAUAUGAAGCCAAACUUUUUAAAAUCCGAAACUACAAAUGGUUAUACUGAUCCGUGUCCCGCCCCGAGUGGUAACCAUGCUUUACUAAUUCAGUUAUGAAAUACAUUAUUUACAACAGAGGAUUGAGCAUCA
B6: chr8:23844609:23844711:-|3pUTR|ENSG00000159167|msi1|FALSE|unique (ssRNA)
RNA: GGGAGUUCUACAGUCCGACGAUCUUUAGGGGUGUUGACACACCAGUUUUGAGUGUACUGUGCCUGGUUUGAUUUUUUUAAAGUAGUUCCUAUUUUCUAUCCCCCUUAAAGAAAAUUGCAUGAAACUAGGCUUCUGUAAUCAAUCAACAGAGGAUUGAGCAUCA
B7: chrX:93670929:93671783:-|three_prime_utr|ENSG00000186310|control|control|control (ssRNA)
RNA: GGGAGUUCUACAGUCCGACGAUCUCAUACAGCCUUGAAAAAAGUAAAACCCUGACCUGUAACCUGAACACUAUUAUUCCUUAUAGUCAAGUUUUUGUGGUUUCUUGGUAGUCUAUAUUUUAAAAAUAGUCCUAAAAAGUGUCUCAACAGAGGAUUGAGCAUCA
B8: chrX:103676501:103676735:-|CDS|ENSG00000123562|unk|FALSE|unique (ssRNA)
RNA: GGGAGUUCUACAGUCCGACGAUCGGAGGUUAAAGUGAAGAUUCCUGAAGAAUUAAAACCAUGGCUUGUUGAGGACUGGGACUUAGUUACCAGGCAGAAGCAGCUGUUUCAACUCCCUGCCAAGAAAAAUGUAGAUGCAAUUCUCAACAGAGGAUUGAGCAUCA
B9: chr19:8065921:8066260:-|CDS|ENSG00000142449|control|control|control (ssRNA)
RNA: GGGAGUUCUACAGUCCGACGAUCCCUCUCACACCUGGGCCGGGCCGAGCGCAUCCUGGAGCUCCGGCCGGCCCUGGAGGGUCUAGAGGGCCGGAUCCGCUACGUCAUCGUCCGCGGAAACGAGCAAGGUUUCUUUCGCAUGCACAACAGAGGAUUGAGCAUCA
B10: chr10:17315694:17315795:-|3pUTR|ENSG00000148488|unk|total|mutant (ssRNA)
RNA: GGGAGUUCUACAGUCCGACGAUCCUUCUUCCUCCCUGUCCAUCCCACCCUCGUCCCCAGAAAAUUCCUAAUCUGUUUUUCUACCGACAUUUACAUUUUUACACUACCGACUGUUUACAUUUUUCCGAAUUUUAUAUAAAUGGACAACAGAGGAUUGAGCAUCA
B11: ENSG00000198589:be:win_6651|CDS|ENSG00000198589|bound_else_gene|NA|bound_elsewhere_windowed (ssRNA)
RNA: GGGAGUUCUACAGUCCGACGAUCUCUCAACACGAUAGCAGGACGGAGUUAUAAUGACUUAAAUCAGUAUCCAGUGUUUCCUUGGGUCAUCACUAAUUAUGAAUCAGAAGAACUGGAUCUUACCUUGCCCACCAACUUCAGAGACAACAGAGGAUUGAGCAUCA
B12: chr10:128108355:128108456:-|CDS|ENSG00000148773|msi1|total|mutant (ssRNA)
RNA: GGGAGUUCUACAGUCCGACGAUCAGUGGACACUCCAACAAGCACAAAGCAAUGGCCUAAGAGAAGUCUCAGGAAAGCAGAUGCCGAGGAAGAAUUCUCCGCACUCAGGAAACUAACACCAUCAGCAGGGAAAGCCAUGCUUACCAACAGAGGAUUGAGCAUCA
B13: chr17:57974666:57974767:-|CDS|ENSG00000136451|msi1|total|mutant (ssRNA)
RNA: GGGAGUUCUACAGUCCGACGAUCGAGCAUGAGAAGUCCAGUAAAUGUUUCAAGUGCAGUUAACAUAACCAGCCCAAUGAACACCGGGCAUCCUGUAACUAUAACCAGUCCAUUAUCCAUGACCUCUCCUUUAACACUCACUACCAACAGAGGAUUGAGCAUCA
B14: chr12:114680981:114681101:-|CDS|ENSG00000135111|unk|total|mutant (ssRNA)
RNA: GGGAGUUCUACAGUCCGACGAUCUAAAGUGAGAUGUUCUGGGCUGGAUAAAAAAGCCAAAUACAUUUUAUUGAUGGACAUUACCGCUGCUGAUGACUGUCGUUAUAAAUUUCACAAUUCUCGGUGGAUGGUGGCUGGUAAGGCCAACAGAGGAUUGAGCAUCA

This is one part of the list.

For the experiment, the target named is MSI1 full-length (mouse, UniProt Q61474 1-362). Briefly: nsRBNS (natural sequence RNA bind-n-seq); RBNS binding buffer (assumed for nsRBNS): 25 mM Tris pH 7.5, 150 mM KCl, 3 mM MgCl2, 0.01% Triton X-100, 500 ug/ml BSA, 20 U/ml SUPERase-In, 4 C; UNK is unkempt and MSI1 is Musashi-1; names of the RNAs are library labels; protein concentration not given here; high values mean tight binding.
Chain of UniProt Q61474 (Q61474 whole entry): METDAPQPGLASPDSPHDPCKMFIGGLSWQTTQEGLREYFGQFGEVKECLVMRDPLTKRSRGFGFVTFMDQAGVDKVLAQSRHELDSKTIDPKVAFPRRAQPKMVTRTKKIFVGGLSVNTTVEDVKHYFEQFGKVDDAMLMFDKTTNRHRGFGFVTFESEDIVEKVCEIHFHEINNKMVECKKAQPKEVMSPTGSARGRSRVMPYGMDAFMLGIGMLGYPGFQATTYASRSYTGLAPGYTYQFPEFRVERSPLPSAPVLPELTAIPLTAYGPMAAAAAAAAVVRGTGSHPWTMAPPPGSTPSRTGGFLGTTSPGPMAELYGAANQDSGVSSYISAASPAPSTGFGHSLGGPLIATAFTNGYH
On to B1, for which the binding signal was 0.506 enrichment R.
As for B2, the binding signal is 0.509 enrichment R.
For B3 the value was 0.318 enrichment R.
Under B4 stands 0.48 enrichment R.
For B5 the value was 1.8 enrichment R; for B6, 2.22 enrichment R; for B7, 9.45 enrichment R.
B8 gave a binding signal of 0.761 enrichment R.
On to B9, for which the binding signal is 0.243 enrichment R.
For B10, the binding signal was 1.84 enrichment R.
For the molecule B11, the binding signal amounted to 0.267 enrichment R.
Under B12 stands 0.455 enrichment R.
Regarding B13, the binding signal was 0.71 enrichment R.
As to B14, the binding signal was 0.386 enrichment R.

Source of the values: publication PMC12136788.
